Measured values as given in patent publication US7777042B2, “N-sulfonylpipecolic acid derivative FKBP binding composition and pharmaceutical use thereof” (Aventis Pharmaceuticals Inc., priority 2004, dated 2010).

Biological target: T1, human FK506 binding protein FKBP12 (Homo sapiens, UniProt P62942)
T1 construct: made in house
Assay: Binding affinity to FK506 binding protein ([3H]FK506 scintillation proximity assay with His6-FKBP12)
Settings: His6-FKBP12, 3.5 nM [3H]FK506; IC50 converted to Ki by Cheng-Prusoff; read-out: FKBP Ki
Experimental: Measurement of binding affinity to FK506 binding proteins:
A construct containing the FKBP coding sequence (NCBI Locus BC005147, as shown in FIG. 2) is expressed in frame with an eight amino acid tag ((histidine)-6-aspartate-tyrosine) on the N-terminus to yield His6-FKBP12. Purified His6-FKBP12 protein is used for measurement of binding affinity in 96 well microtiter format. All wells contain 3.5 nM [^3H]FK506, 50 mM Hepes-NaOH (pH 7.7), 0.05% bovine serum albumin, 90 μg yttrium silicate copper chelate scintillation proximity beads (Amersham®), and 12 ng His6-FKBP12 in 200 μl final volume. Total and non-specific binding is defined as that observed in the absence and presence of 1 μM unlabeled FK506. Compounds of the present invention were evaluated for FKBP target affinity by including various concentrations of the unlabeled test compounds in the incubation mixture. […] The reaction was initiated by adding the His6-FKBP12, then the plates were sealed and placed on a laboratory shaker for 1 hour at room temperature. Bound radioactivity was determined using a plate-based scintillation counter (TopCount®, Packard®). Inhibition constants (IC50 values) were obtained using non-linear regression analysis and converted to Ki values using the Cheng-Prusoff correction procedure.
The binding of the compounds of the present invention to FKBP12 is exemplified by the Ki values of the following Table 1.

T1 sequence (P62942 whole entry): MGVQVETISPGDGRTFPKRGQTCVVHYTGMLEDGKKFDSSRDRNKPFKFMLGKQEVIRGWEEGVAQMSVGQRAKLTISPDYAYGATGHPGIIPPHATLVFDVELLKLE

Ki	Compound
2.16 nM	O=C(Nc1ccc(N2CCOCC2)cc1)[C@H](Cc1ccc(C(F)(F)F)cc1)NC(=O)[C@@H]1CCCCN1S(=O)(=O)c1cccc(C(F)(F)F)c1
556 nM	NC(=O)[C@H](Cc1ccccc1)NC(=O)[C@@H]1CCCCN1S(=O)(=O)c1cccc(O)c1
456 nM	Cc1ccccc1C[C@H](NC(=O)[C@@H]1CCCCN1S(=O)(=O)c1ccccc1)C(N)=O
2.54 nM	CCOc1ccc(NC(=O)[C@H](Cc2ccc(C(C)=O)cc2)NC(=O)[C@@H]2CCCCN2S(=O)(=O)c2cccc(C(F)(F)F)c2)cc1
9.13 nM	COc1ccc(C[C@H](NC(=O)[C@@H]2CCCCN2S(=O)(=O)c2cccc(C(F)(F)F)c2)C(=O)NC(C)(C)CO)cc1
2.7 nM	CC(C)Oc1ccc(C[C@H](NC(=O)[C@@H]2CCCCN2S(=O)(=O)c2cccc(C(F)(F)F)c2)C(=O)NC2CCOCC2)cc1 [drawing 59]
842 nM	NC(=O)[C@H](Cc1c[nH]c2ccccc12)NC(=O)[C@@H]1CCCCN1S(=O)(=O)/C=C/c1ccccc1
11.3 nM	COc1ccc(C[C@H](NC(=O)[C@@H]2CCCCN2S(=O)(=O)c2cccc(C(F)(F)F)c2)C(=O)NC2CCOCC2)cc1 [drawing 39]
4.72 nM	CN(C)CCOc1ccc(C[C@H](NC(=O)[C@@H]2CCCCN2S(=O)(=O)c2cccc(C(F)(F)F)c2)C(=O)NC2CCCCC2)cc1
40.2 nM	COC[C@H](C)NC(=O)C(Cc1ccc(OCCCF)cc1)NC(=O)[C@@H]1CCCCN1S(=O)(=O)c1cccc(F)c1 (some centres unmarked)
79 nM	NC(=O)[C@H](Cc1c[nH]c2ccccc12)NC(=O)[C@@H]1CCCCN1S(=O)(=O)c1cc(Br)c(Br)s1
97.1 nM	O=C(N[C@@H](Cc1ccccc1)c1nc2ccccc2[nH]1)[C@@H]1CCCCN1S(=O)(=O)c1cccc(C(F)(F)F)c1
25.7 nM	CNC(=O)[C@H](Cc1c[nH]c2ccccc12)NC(=O)[C@@H]1CCCCN1S(=O)(=O)c1cc(Cl)cc(Cl)c1
3.62 nM	COc1ccc(C[C@H](NC(=O)[C@@H]2CCCCN2S(=O)(=O)c2cccc(C(F)(F)F)c2)C(=O)NCCN2CCNCC2)cc1
8.47 nM	CC(=O)c1ccc(C[C@H](NC(=O)[C@@H]2CCCCN2S(=O)(=O)c2cccc(C(F)(F)F)c2)C(=O)Nc2ccc(N3CCOCC3)cc2)cc1 [drawing 51]
30.1 nM	Cc1ccc(C[C@H](NC(=O)[C@@H]2CCCCN2S(=O)(=O)c2cccc(C(F)(F)F)c2)C(=O)NC2CCCCC2)cc1 [drawing 54]
3.84 nM	COCCCOc1ccc(C[C@H](NC(=O)[C@@H]2CCCCN2S(=O)(=O)c2cccc(F)c2)C(=O)NC2CCOCC2)cc1
2.59 nM	CC(O)c1ccc(C[C@H](NC(=O)[C@@H]2CCCCN2S(=O)(=O)c2cccc(C(F)(F)F)c2)C(=O)Nc2ccc(N3CCOCC3)cc2)cc1 (some centres unmarked) [drawing 42]
191 nM	NC(=O)[C@H](Cc1c[nH]c2ccccc12)NC(=O)[C@@H]1CCCCN1S(=O)(=O)c1ccccc1
88.1 nM	O=C(N[C@@H](Cc1ccc(OCc2ccccc2)cc1)c1nc2ccccc2[nH]1)[C@@H]1CCCCN1S(=O)(=O)c1cccc(C(F)(F)F)c1
0.24 nM	COc1ccc(C[C@H](NC(=O)[C@@H]2CCCCN2S(=O)(=O)c2cccc(C(F)(F)F)c2)C(=O)Nc2ccc(N3CCOCC3)cc2)cc1 [drawing 40]
5.08 nM	C=CCOc1ccc(C[C@H](NC(=O)[C@@H]2CCCCN2S(=O)(=O)c2cccc(C(F)(F)F)c2)C(=O)NC2CCCCC2)cc1

Ki	Compound
4.54 nM	CC1(C)CC(NC(=O)[C@H](Cc2ccc(OCCCF)cc2)NC(=O)[C@@H]2CCCCN2S(=O)(=O)c2cccc(F)c2)CC(C)(C)N1 [drawing 36]
2.91 nM	COc1ccc(C[C@H](NC(=O)[C@@H]2CCCCN2S(=O)(=O)c2cccc(C(F)(F)F)c2)C(=O)NC2CCOCC2)cc1OC [drawing 35]
3870 nM	CN(C)C(=O)[C@H](Cc1c[nH]c2ccccc12)NC(=O)[C@@H]1CCCCN1S(=O)(=O)c1ccccc1
4.93 nM	CC(C)Oc1ccc(C[C@H](NC(=O)[C@@H]2CCCCN2S(=O)(=O)c2cccc(F)c2)C(=O)NC2CC(C)(C)NC(C)(C)C2)cc1 [drawing 62]
5.47 nM	CCOc1ccc(NC(=O)[C@H](Cc2ccc(C(C)O)cc2)NC(=O)[C@@H]2CCCCN2S(=O)(=O)c2cccc(C(F)(F)F)c2)cc1 (some centres unmarked)
18.1 nM	CC(O)c1ccc(C[C@H](NC(=O)[C@@H]2CCCCN2S(=O)(=O)c2cccc(C(F)(F)F)c2)C(=O)Nc2ccc(N(C)C)cc2)cc1 (some centres unmarked)
7.25 nM	COc1ccc(C[C@H](NC(=O)[C@@H]2CCCCN2S(=O)(=O)c2cccc(C(F)(F)F)c2)C(=O)Nc2ccc(N(C)C)cc2)cc1 (single isomer, unassigned)
151 nM	CC(C)(C)NC(=O)[C@H](Cc1c[nH]c2ccccc12)NC(=O)[C@@H]1CCCCN1S(=O)(=O)c1ccccc1
26400 nM	NC(=O)[C@@H](Cc1c[nH]c2ccccc12)NC(=O)[C@@H]1CCCCN1S(=O)(=O)c1ccccc1
27.1 nM	COc1cccc(S(=O)(=O)N2CCCC[C@H]2C(=O)N[C@@H](Cc2c[nH]c3ccccc23)C(=O)Nc2ccc3ccccc3c2)c1
2.16 nM	COc1ccc(C[C@H](NC(=O)[C@@H]2CCCCN2S(=O)(=O)c2ccccc2)C(=O)NCCC(C)(C)C)cc1 [drawing 27]
42.3 nM	Cc1ccc(C[C@H](NC(=O)[C@@H]2CCCCN2S(=O)(=O)c2ccccc2)C(=O)NC2CCCCC2)cc1 [drawing 26]
22.2 nM	C[C@](Cc1ccc(OC2CCCC2)cc1)(NC(=O)[C@@H]1CCCCN1S(=O)(=O)c1cccc(F)c1)C(=O)NC1CCOCC1
12.8 nM	C=CCOc1ccc(C[C@H](NC(=O)[C@@H]2CCCCN2S(=O)(=O)c2ccccc2)C(=O)NC2CCCCC2)cc1 [drawing 53]
1.91 nM	CC(C)c1ccc(C[C@H](NC(=O)[C@@H]2CCCCN2S(=O)(=O)c2ccccc2)C(=O)NCC(C)(C)CO)cc1
517 nM	NC(=O)[C@H](Cc1ccccc1)NC(=O)[C@@H]1CCCCN1S(=O)(=O)c1ccccc1
331 nM	CCCOc1cccc(S(=O)(=O)N2CCCC[C@H]2C(=O)N[C@@H](Cc2ccccc2)C(N)=O)c1
> 100000 nM	O=C(NCCc1c[nH]c2ccccc12)[C@@H]1CCCCN1S(=O)(=O)c1ccccc1
19.8 nM	CN(C)CCCCNC(=O)[C@H](Cc1ccc(F)cc1)NC(=O)[C@@H]1CCCCN1S(=O)(=O)c1cccc(F)c1
1.55 nM	Cc1ccc(C[C@H](NC(=O)[C@@H]2CCCCN2S(=O)(=O)c2cccc(C(F)(F)F)c2)C(=O)NCCCCN)cc1 [drawing 37]
281 nM	COc1ccc(C[C@H](NC(=O)[C@@H]2CCCCN2S(=O)(=O)c2cccc(F)c2)C(=O)NC2CCOCC2)cc1

System: FKBP12-mediated signaling in Jurkat cells containing IFNγ-Luc
Assay: Jurkat IFNγ-Luc reporter: intrinsic inhibition of PMA/A23187-mediated increases in reporter activity
Type: cell-based
Settings: Homo sapiens, PMA 10 ng/ml + A23187 1.0 μM, read-out: EC50 (half-maximal inhibition of PMA/A23187-mediated increases in reporter activity)

EC50	Compound
0.7 nM	C=CC[C@@H]1/C=C(\C)C[C@H](C)C[C@H](OC)[C@H]2O[C@@](O)(C(=O)C(=O)N3CCCC[C@H]3C(=O)O[C@H](/C(C)=C/[C@@H]3CC[C@@H](O)[C@H](OC)C3)[C@H](C)[C@@H](O)CC1=O)[C@H](C)C[C@@H]2OC [FK506]
